# The list shows a part of the results.
# What was measured:
# Assay in all cases: glycan array binding signal (z-score within array); higher = stronger binding
# Details in all cases: glycan notation: IUPAC condensed, linker removed
# [1] = molecular target: GlcNAc(b1-2)Gal(b1-3)GalNAc
# Procedure, shortened: (§1)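 From the Consortium for Functional Glycomics database, 3228 arrays were curated, keeping only those whose protein sequence was available. Binding is given as a within-array Z-score averaged across arrays sharing a protein sequence and across linkers. Negative Z-scores can be read as non-binding.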
# [2] = molecular target: GlcNAc(b1-2)Man(a1-3)[GlcNAc(b1-2)Man(a1-6)]Man(b1-4)GlcNAc(b1-4)GlcNAc
# Procedure, shortened: as §1
# [3] = molecular target: GlcNAc(b1-2)Man(a1-3)[GlcNAc(b1-2)Man(a1-6)]Man(b1-4)GlcNAc(b1-4)[Fuc(a1-6)]GlcNAc
# Procedure, shortened: as §1
# GlcNAc(b1-3)Gal = molecular target: GlcNAc(b1-3)Gal
# Procedure, shortened: as §1
# [4] = molecular target: GlcNAc(b1-3)Gal(b1-3)GalNAc
# Procedure, shortened: as §1
# GlcNAc(b1-3)Gal(b1-4)Glc = molecular target: GlcNAc(b1-3)Gal(b1-4)Glc
# Procedure, shortened: as §1
# [5] = molecular target: GlcNAc(b1-3)Gal(b1-4)GlcNAc
# Procedure, shortened: as §1
# [6] = molecular target: GlcNAc(b1-3)Gal(b1-4)GlcNAc(b1-3)Gal(b1-4)GlcNAc
# Procedure, shortened: as §1
# GlcNAc(b1-3)GalNAc = molecular target: GlcNAc(b1-3)GalNAc
# Procedure, shortened: as §1
# GlcNAc(b1-3)Man = molecular target: GlcNAc(b1-3)Man
# Procedure, shortened: as §1
# [7] = molecular target: GlcNAc(b1-3)[GlcNAc(b1-4)][GlcNAc(b1-6)]GlcNAc
# Procedure, shortened: as §1
# [8] = molecular target: GlcNAc(b1-3)[GlcNAc(b1-6)]Gal(b1-4)GlcNAc
# Procedure, shortened: as §1
# [9] = molecular target: GlcNAc(b1-3)[GlcNAc(b1-6)]GalNAc
# Procedure, shortened: as §1
# [10] = molecular target: GlcNAc(b1-4)Gal(b1-4)GlcNAc
# Procedure, shortened: as §1
# GlcNAc(b1-4)GlcNAc = molecular target: GlcNAc(b1-4)GlcNAc
# Procedure, shortened: as §1
# [11] = molecular target: GlcNAc(b1-4)GlcNAc(b1-4)GlcNAc
# Procedure, shortened: as §1
# [12] = molecular target: GlcNAc(b1-4)GlcNAc(b1-4)GlcNAc(b1-4)GlcNAc(b1-4)GlcNAc
# Procedure, shortened: as §1
# [13] = molecular target: GlcNAc(b1-4)GlcNAc(b1-4)GlcNAc(b1-4)GlcNAc(b1-4)GlcNAc(b1-4)GlcNAc
# Procedure, shortened: as §1
# [14] = molecular target: GlcNAc(b1-4)[GlcNAc(b1-6)]GalNAc
# Procedure, shortened: as §1
# [15] = molecular target: GlcNAc(b1-6)Gal(b1-4)GlcNAc
# Procedure, shortened: as §1
# GlcNAc(b1-6)GalNAc = molecular target: GlcNAc(b1-6)GalNAc
# Procedure, shortened: as §1
# GlcNAc3Prop(b1-4)GlcNAc = molecular target: GlcNAc3Prop(b1-4)GlcNAc
# Procedure, shortened: as §1
# [16] = molecular target: GlcNAc6S(b1-3)Gal(b1-4)GlcNAc
# Procedure, shortened: as §1
# Kdn(a2-3)Gal(b1-3)GalNAc = molecular target: Kdn(a2-3)Gal(b1-3)GalNAc
# Procedure, shortened: as §1
# Kdn(a2-3)Gal(b1-3)GlcNAc = molecular target: Kdn(a2-3)Gal(b1-3)GlcNAc
# Procedure, shortened: as §1
# Kdn(a2-3)Gal(b1-4)Glc = molecular target: Kdn(a2-3)Gal(b1-4)Glc
# Procedure, shortened: as §1
# Kdn(a2-3)Gal(b1-4)GlcNAc = molecular target: Kdn(a2-3)Gal(b1-4)GlcNAc
# Procedure, shortened: as §1
# [17] = molecular target: Kdn(a2-3)Gal(b1-4)[Fuc(a1-3)]GlcNAc
# Procedure, shortened: as §1
# Kdn(a2-6)Gal(b1-4)GlcNAc = molecular target: Kdn(a2-6)Gal(b1-4)GlcNAc
# Procedure, shortened: as §1
# [18] = molecular target: Man(a1-2)Man(a1-2)Man(a1-3)Man
# Procedure, shortened: as §1
# [19] = molecular target: Man(a1-2)Man(a1-2)Man(a1-6)[Man(a1-3)]Man
# Procedure, shortened: as §1
# Man(a1-2)Man(a1-3)Man = molecular target: Man(a1-2)Man(a1-3)Man
# Procedure, shortened: as §1
# [20] = molecular target: Man(a1-2)Man(a1-3)[Man(a1-2)Man(a1-6)]Man
# Procedure, shortened: as §1
# [21] = molecular target: Man(a1-2)Man(a1-3)[Man(a1-2)Man(a1-6)]Man(a1-6)[Man(a1-2)Man(a1-2)Man(a1-3)]Man
# Procedure, shortened: as §1
# [22] = molecular target: Man(a1-2)Man(a1-3)[Man(a1-2)Man(a1-6)]Man(a1-6)[Man(a1-2)Man(a1-2)Man(a1-3)]Man(b1-4)GlcNAc(b1-4)GlcNAc
# Procedure, shortened: as §1
# [23] = molecular target: Man(a1-2)Man(a1-3)[Man(a1-6)]Man(a1-6)[Man(a1-2)Man(a1-3)]Man(b1-4)GlcNAc(b1-4)GlcNAc
# Procedure, shortened: as §1
# [24] = molecular target: Man(a1-2)Man(a1-6)[Man(a1-3)]Man(a1-6)[Man(a1-2)Man(a1-2)Man(a1-3)]Man
# Procedure, shortened: as §1
# [25] = molecular target: Man(a1-2)Man(a1-6)[Man(a1-3)]Man(a1-6)[Man(a1-2)Man(a1-2)Man(a1-3)]Man(b1-4)GlcNAc(b1-4)GlcNAc
# Procedure, shortened: as §1
# Man(a1-3)[Man(a1-6)]Man = molecular target: Man(a1-3)[Man(a1-6)]Man
# Procedure, shortened: as §1
# [26] = molecular target: Man(a1-3)[Man(a1-6)]Man(a1-6)[Man(a1-2)Man(a1-3)]Man(b1-4)GlcNAc(b1-4)GlcNAc
# Procedure, shortened: as §1
# [27] = molecular target: Man(a1-3)[Man(a1-6)]Man(a1-6)[Man(a1-3)]Man
# Procedure, shortened: as §1
# [28] = molecular target: Man(a1-3)[Man(a1-6)]Man(a1-6)[Man(a1-3)]Man(b1-4)GlcNAc(b1-4)GlcNAc
# Procedure, shortened: as §1
# [29] = molecular target: Man(a1-3)[Man(a1-6)]Man(b1-4)GlcNAc(b1-4)GlcNAc
# Procedure, shortened: as §1
# Man(a1-6)Man = molecular target: Man(a1-6)Man
# Procedure, shortened: as §1
# Man(b1-4)GlcNAc = molecular target: Man(b1-4)GlcNAc
# Procedure, shortened: as §1
binder,measurement,setting,value
"GIINTLQKYYCRVRGGRCAVLSCLPKEEQIGKCSTRGRKCCRRKK [Beta-Defensin 3 (Homo sapiens), P81534]",glycan array binding signal (z-score),[1],-0.486
same,glycan array binding signal (z-score),[2],-0.572
same,glycan array binding signal (z-score),[3],-0.229
same,glycan array binding signal (z-score),GlcNAc(b1-3)Gal,-0.265
same,glycan array binding signal (z-score),[4],-0.317
same,glycan array binding signal (z-score),GlcNAc(b1-3)Gal(b1-4)Glc,-0.267
same,glycan array binding signal (z-score),[5],-0.431
same,glycan array binding signal (z-score),[6],-0.356
same,glycan array binding signal (z-score),GlcNAc(b1-3)GalNAc,-0.296
same,glycan array binding signal (z-score),GlcNAc(b1-3)Man,0.027
same,glycan array binding signal (z-score),[7],-0.457
same,glycan array binding signal (z-score),[8],-0.55
same,glycan array binding signal (z-score),[9],-0.468
same,glycan array binding signal (z-score),[10],-0.618
same,glycan array binding signal (z-score),GlcNAc(b1-4)GlcNAc,-0.569
same,glycan array binding signal (z-score),[11],-0.463
same,glycan array binding signal (z-score),[12],-0.136
same,glycan array binding signal (z-score),[13],-0.326
same,glycan array binding signal (z-score),[14],-0.531
same,glycan array binding signal (z-score),[15],-0.369
same,glycan array binding signal (z-score),GlcNAc(b1-6)GalNAc,-0.454
same,glycan array binding signal (z-score),GlcNAc3Prop(b1-4)GlcNAc,-0.456
same,glycan array binding signal (z-score),[16],-0.665
same,glycan array binding signal (z-score),Kdn(a2-3)Gal(b1-3)GalNAc,1.06
same,glycan array binding signal (z-score),Kdn(a2-3)Gal(b1-3)GlcNAc,-0.066
same,glycan array binding signal (z-score),Kdn(a2-3)Gal(b1-4)Glc,-0.135
same,glycan array binding signal (z-score),Kdn(a2-3)Gal(b1-4)GlcNAc,-0.083
same,glycan array binding signal (z-score),[17],0.297
same,glycan array binding signal (z-score),Kdn(a2-6)Gal(b1-4)GlcNAc,0.152
same,glycan array binding signal (z-score),[18],-0.376
same,glycan array binding signal (z-score),[19],-0.442
same,glycan array binding signal (z-score),Man(a1-2)Man(a1-3)Man,-0.337
same,glycan array binding signal (z-score),[20],-0.276
same,glycan array binding signal (z-score),[21],-0.582
same,glycan array binding signal (z-score),[22],-0.123
same,glycan array binding signal (z-score),[23],-0.173
same,glycan array binding signal (z-score),[24],-0.461
same,glycan array binding signal (z-score),[25],-0.521
same,glycan array binding signal (z-score),Man(a1-3)[Man(a1-6)]Man,-0.232
same,glycan array binding signal (z-score),[26],-0.424
same,glycan array binding signal (z-score),[27],-0.552
same,glycan array binding signal (z-score),[28],-0.316
same,glycan array binding signal (z-score),[29],-0.327
same,glycan array binding signal (z-score),Man(a1-6)Man,-0.288
same,glycan array binding signal (z-score),Man(b1-4)GlcNAc,-0.333

# Reference: the supplement of paper PMC8728848
